{
  "source": "PubChem BioAssay AID1347430",
  "about": "(National Center for Advancing Translational Sciences (NCATS), 2020)",
  "note": "The whole screen tested about 91,000 compounds, of which about 130 (0.14%) were called active. Inconclusive results, whose numbers are uncertain, are shown with a selection of clear calls. Calls come from the whole dose curve; as a rule, active = well fitted inhibition curve with a large enough effect; inconclusive = small, poorly fitted or top-dose-only effect; inactive = flat fitted curve, though single readings scatter. A potency beside an inconclusive call is a rough fit, not a confirmed value. % is set by controls: 0 for no effect and ±100 for the full control effect; potency is the fitted concentration of half-maximal effect; tags give direction and shape of the fitted curve.",
  "data": [
    {"tested_on": "Uracil-DNA glycosylase", "assay": "Primary qHTS assay for inhibitors of Activation Induced Cytidine Deaminase (AID): UDG Counterscreen signal; note: nearly all actives have a fitted effect of over 65% in size", "settings": "FRET deamination/UDG coupled assay, UDG read, 4 h; series mostly up to 115 µM; activity change, negative = inhibition: at the top concentration", "from_the_text": "Assay Provider (PI) Patricia Gearhart Ph.D.\nNational Institute on Aging\nNational Institute of Health (NIH), Bethesda, MD\nAssay Provider (PI) Rahul Kohli Ph.D.\nPerelman School of Medicine\nUniversity of Pennsylvania, Philadelphia, PA\nActivation-Induced Deaminase (AID) is a cytosine deaminase which converts cytosine into uracil within stretches of ssDNA. The presence of uracil in DNA initiates a cascade of mutagenic DNA repair to introduce point mutations and DNA double strand breaks. Specific targeting of AID to the immunoglobulin heavy chain loci (Igh) promotes mutagenesis in the antibody variable region for somatic hypermutation (SHM) or switch regions leading to class switch recombination (CSR). However, AID also plays a role in accumulating unnecessary mutations across the genome. Mis-targeting of AID results in the initiation of tumor development and leads to greater drug resistance among cancer cells when continually expressed. To identify an AID inhibitor, a small molecule library will be screened in collaboration with NCATS core facility at NIH. To confirm biological function, inhibitors will be examined in an in vitro murine B-cell activation assay and subsequent secondary validation screens. Top molecules will be further screened to identify inhibitory efficacy against a wild type primary splenocytes assay. Using these approaches, we hope to identify a small molecule with great efficacy and low toxicity for use as a molecular probe to further characterize AID's intricacies, or even as a therapeutic.\nA FRET based analysis of cytosine deamination, was developed to identify potential inhibitors of AID catalytic activity. This screen has two signal output, Read 1 evaluates the AID inhibition response. The second readout (Read 2) evaluates UDG response and is uses as a counterscreen to exclude false positive inhibitors. Inhibition in AID and inactivity in the UDG signal is the desired outcome for this assay.\nSEQUENCE No. (e.g., 1, 2, 3, etc.); […] (e.g., Cells, Incubation, Reagent, etc.); VALUE; DESCRIPTION\n1a; Reagent; 3 uL; [4/3x] 1 uM AID/2.67 U/mL UDG\n1b; Reagent; 3 uL; 2 U/mL UDG\n1c; Reagent; 3 uL; 1 uM AID\n2a; Compound; 46 nL; Follow-up plates (0.64 uM - 10 mM)\n2b; Control; 46 nL; ATA ([…] - 10 mM)\n3; Time; 10 min; incubation at room temperature\n5; Time; 4 hr; incubation at room temperature\n6; Reagent; 4 uL; [2x] 250 mM NaOH\n7; Time; 15 sec; centrifuge at 1000 rpm\n8; Time; 30 min; incubation at room temperature\n9a; Detection; fluorescence (Read 1: AID); EnVision (PerkinElmer) plate reader, 540 excitation and 590 emission filters\n9b; Detection; fluorescence (Read 2: UDG); EnVision (PerkinElmer) plate reader, 560 excitation and 665 emission filters\nNOTES (numbers refer to sequence above)\n1a; Reagents were dispensed in a medium-binding black solid-bottom Greiner plates (789176F) using a BioRptr liquid dispenser. Dispense 3 uL of [4/3x] 1 uM AID (provided by Kohli lab) and [4/3x] 2 U/mL UDG (NEB M0280L) into columns 1, 2, 5 to 48.\n1b; Dispense 3 uL of [4/3x] 2 U/mL UDG into column 3.\n1c; Dispense 3 uL of [4/3x] 1 uM AID into column 4.\n2a; Compound (7-points [uM] (0.64; 3.2; 16; 80; 400; 2,000; 10,000; 20,000) double pin-transferred (Dip Factor = 2) using the Kalypsys (Wako USA) pintool equipped with a 1536 pinhead for a final concentration range of 7.32 nM - 114 uM.\n2b; 10 mM Aurintricarboxylic Acid (Sigma A1895) (ATA, 8-point, n = 2, 1:2.5 dilution in column 2) double pin-transferred (Dip Factor = 2) using the Kalypsys (Wako USA) pintool equipped with a 1536 pinhead for a [final] range of 186 nM - 114 uM.\n3; Room temperature incubation.\n4; Dispense 1 uL of substrate mixture from the Kohli lab [4x] […] DJC20 and [4x] 250 nM DJC23 into columns 1 to 48 .\n5; Room temperature incubation.\n6; Dispense 4 uL of substrate mixture [2x] 250 mM NaOH into columns 1 to 48.\n7; Centrifugation step to remove bubbles.\n8; Room temperature incubation\n9a; Fluorescence signal (column label AID) was read using the EnVision plate reader. […]", "values": [
      {"smiles": "O=C(Nc1ccc2c(c1)OCCO2)c1cccn(Cc2cccc(F)c2)c1=O", "Potency": "inconclusive: 89.1 µM [inhibitor, single point]"},
      {"smiles": "COc1ccc(CCNCc2cccc(Br)c2)cc1", "activity change, negative = inhibition": "inactive: -10.7%"},
      {"smiles": "O=C1CN(C(=O)c2cn(Cc3ccccc3)c3ccccc23)CCN1", "activity change, negative = inhibition": "inactive: 4.27%"},
      {"smiles": "COc1ccc(NC(=O)CCc2nc(C3=CCN(Cc4cccc(Cl)c4)CC3)no2)cc1OC", "Potency": "inconclusive: 79.4 µM [inhibitor, partial curve]"},
      {"smiles": "Cc1cccc(-n2c(/C=C/c3ccco3)nc3ccccc3c2=O)c1", "Potency": "inconclusive: 70.8 µM [inhibitor, partial curve, poor fit]"},
      {"smiles": "CN(C)C(=O)Oc1ccc2cc(-c3ccccc3)c(=O)oc2c1", "activity change, negative = inhibition": "inactive: -4.16%"},
      {"smiles": "OCCSCCSCCO", "activity change, negative = inhibition": "inactive: -3.67%"},
      {"smiles": "Cc1ccc(-n2nc(C)c3c2NC(=O)CSC3c2ccc(O)cc2)cc1Cl", "note": "(configuration not stated)", "Potency": "inconclusive: 10 µM [inhibitor, partial curve, poor fit]"},
      {"smiles": "Cc1c(-c2ccc(Cl)cc2)c(=O)oc2ccc(OC(=O)N(C)C)cc12", "activity change, negative = inhibition": "inactive: -0.407%"},
      {"smiles": "CC(=O)OC1CCC2(C=O)[C@H]3CCC4(C)C(C5=CC(=O)OC5)CCC4(O)[C@@H]3CCC2(O)C1", "note": "(some centres not stated)", "activity change, negative = inhibition": "inactive: -0.9%"},
      {"smiles": "Cc1cccc(Cn2cccc(C(=O)Nc3cc(C)on3)c2=O)c1", "Potency": "inconclusive: 100 µM [inhibitor, single point]"},
      {"smiles": "CNC(=O)NC(=O)C(C)Cl", "note": "(configuration not stated)", "activity change, negative = inhibition": "inactive: 0.368%"},
      {"smiles": "COc1ccc(-n2c(/C=C\\c3ccccc3F)nc3ccccc3c2=O)c(OC)c1", "Potency": "active: 79.4 µM"},
      {"smiles": "Cc1cc(OCC(=O)N2CCN(CCc3ccncc3)CC2)ccc1Cl", "Potency": "inconclusive: 89.1 µM [inhibitor, single point]"},
      {"smiles": "COc1ccc(OC)c(C(c2c(O)c3ccccc3oc2=O)c2c(C)n(C)n(-c3ccccc3)c2=O)c1", "note": "(configuration not stated)", "activity change, negative = inhibition": "inactive: -3.24%"},
      {"smiles": "CN1CC2(c3ccccc3)CN(C)CC(c3ccccc3)(C1)C2=O", "Potency": "inconclusive: 20 µM [inhibitor, full curve, poor fit]"},
      {"smiles": "Cc1cc(NC(=O)c2cccn(Cc3ccccc3)c2=O)no1", "Potency": "inconclusive: 89.1 µM [inhibitor, single point]"},
      {"smiles": "Cc1cccc(-n2nc(C)c3c2NC(=O)CSC3c2ccccc2Cl)c1", "note": "(configuration not stated)", "activity change, negative = inhibition": "inactive: -2.04%"},
      {"smiles": "O=C(Nc1ccc2c(c1)OCO2)c1cccn(Cc2cccc([N+](=O)[O-])c2)c1=O", "Potency": "inconclusive: 89.1 µM [inhibitor, single point]"},
      {"smiles": "CC(Oc1ccccc1)C(=O)NN", "note": "(configuration not stated)", "activity change, negative = inhibition": "inactive: -2.18%"},
      {"smiles": "O=S1(=O)N(Cc2ccccc2Cl)CCCN1Cc1ccccc1Cl", "Potency": "inconclusive: 89.1 µM [inhibitor, single point]"},
      {"smiles": "COc1ccc(NC(=O)CCc2nc(C3=CCN(Cc4cccc(Cl)c4)CC3)no2)c(OC)c1", "Potency": "inconclusive: 89.1 µM [inhibitor, partial curve, poor fit]"}
    ]}
  ]
}
